Laboratory results published in EP0104572A1, “Benzyl ethers of phenol Mannich bases, process for their production, their use and pharmaceutical preparations based on these compounds, intermediates and process for their production” (priority 1982, dated 1984).
At least one read-out could not be matched to a standard name with certainty.

Tested on: Serum-Lipoproteine
Test: Change of serum and lipoprotein-fraction cholesterol in rats after 7 days of oral treatment (ultracentrifuge fractionation, CHOD-PAP cholesterol)
Format: in vivo, männlichen Wistar-Ratten
Conditions: oral (gavage), male Wistar rats, ratio relative to control
From the text: Die Wirkung der angeführten Verbindungen auf die Serum- Lipoproteine wurde an männlichen Wistar-Ratten untersucht, die 7 Tage per Schlundsonde mit den angeführten in Polyäthylenglykol 400 suspendierten Verbindungen behandelt wurden. Außerdem wurde eine Kontrollgruppe, die nur das Lösungsmittel Polyäthylenglykol 400 erhielt, mitgeführt, sowie bei den meisten Versuchen eine Ratten-Gruppe mit dem Standardhypolipidämikum Clofibrat. Pro Gruppe wurden in der Regel 10 Tiere eingesetzt, denen am Ende der Behandlung das Blut nach leichter Äthernarkose aus dem Orbitalplexus entnommen wurde. Aus dem gewonnenen Ratten-Serum wurden die Serum- Lipoproteine in der präparativen Ultrazentrifuge in folgende Dichteklassen getrennt: VLDL < 1,006; LDL 1,006 bis 1,04; HDL 1,04 bis 1,21
Da nämlich im Gegensatz zum Menschen die Serumlipoproteine der Ratte etwa 4/5 HDL-Cholesterin und nur 1/5 LDL-Cholesterin enthalten und nur sehr geringe Mengen von VLDL (beim Menschen umgekehrt etwa 2/3 LDL und VLDL und nur 1/3 bis 1/4 HDL), macht die Beurteilung einer hypolipidämischen Wir- .kung an der Ratte unbedingt eine Fraktionierung des Ratten-serums in Lipoproteinklassen erforderlich. Eine bloße Erniedrigung des Serum-Total-cholesteringehaltes an der Ratte würde nämlich nur die unerwünschte Erniedrigung der bei der Ratte vorwiegenden antiatherogenen HDL-Klasse anzeigen. Eine erwünschte Erniedrigung von LDL bei gleichzeitiger erwünschter Vermehrung von HDL hätte aber keine (wesentliche) Auswirkung auf den Totalcholesteringehalt des Ratten-Serums.
Aus den in der Ultrazentrifuge isolierten LipoproteinFraktionen wurde das darin enthaltene Cholesterin vollenzymatisch nach der CHOD-PAP-Methode mittels der Testkombination von Boehringer-Mannheim bestimmt und die Werte in µg/ml Serum umgerechnet. In der angeführten Tabelle ist die Veränderung des Lipoprotein-Cholesterins in der behandelten Gruppe gegenüber einer unter gleichen Bedingungen mitgeführten Kontrollgruppe angegeben.
Veränderung in % der Lipoproteine im Ratten-Serum nach siebentägiger oraler Applikation der Verbindungen

Row | Structure (SMILES) | Cholesterolveränderung, bezogen auf die Kontrollgruppe in den Serum-Lipoprotein-Fraktionen HDL/LDL (10 mg/kg / Tag) | Cholesterolveränderung, bezogen auf die Kontrollgruppe in den Serum-Lipoprotein-Fraktionen HDL/LDL (30 mg/kg / Tag) | other results
1 | Cc1cc(Cn2ccnc2)cc(Cl)c1OCc1ccc(C(O)C(C)(C)C)cc1 (stereo not drawn) [Beispiel 5, α-Tert.-butyl-4-[2-Chlon-6-methyl-4-(imidazol-1-ylmekthyl)-phenoxymethyl]-benzylalkohol] | 2.24 |  | Cholesterolveränderung, bezogen auf die Kontrollgruppe in den Serum-Lipoprotein-Fraktionen HDL/LDL (1 mg/kg / Tag): 1.54; Cholesterolveränderung, bezogen auf die Kontrollgruppe in den Serum-Lipoprotein-Fraktionen HDL/LDL (3 mg/kg / Tag): 2.25
2 | CC(C)(C)C(=O)c1ccc(COc2c(Cl)cc(Cn3ccnc3)cc2Cl)cc1 [Beispiel 1.6] | 1.58 |  | 
3 | C=CCc1cc(Cn2ccnc2)cc(Cl)c1OCc1ccc(C(=O)C(C)(C)C)cc1 [Beispiel 1.7] |  |  | Cholesterolveränderung, bezogen auf die Kontrollgruppe in den Serum-Lipoprotein-Fraktionen HDL/LDL (20 mg/kg / Tag): 1.62
4 | C=CCc1cc(Cn2ccnc2)cc(C)c1OCc1ccc(C(O)C(C)(C)C)cc1 (stereo not drawn) [Beispiel 2.2] |  | 2.26 | 
5 | CCOC(=O)C(C)(C)Oc1ccc(Cl)cc1 [Clofibrat, reference compound] |  |  | Cholesterolveränderung, bezogen auf die Kontrollgruppe in den Serum-Lipoprotein-Fraktionen HDL/LDL (100 mg/kg / Tag): 0.70
6 | Cc1cc(Cn2cncn2)cc(Cl)c1OCc1ccc(C(=O)C(C)(C)C)cc1 [Beispiel 1.19] | 1.40 |  | 
7 | Cc1ccc(Cn2ccnc2)cc1 [1-(4-Methyl-benyl)-imidazol, 1-(4-Methylbenzyl)-imidazol, reference compound] | 1.25 | 7.41 | Cholesterolveränderung, bezogen auf die Kontrollgruppe in den Serum-Lipoprotein-Fraktionen HDL/LDL (3 mg/kg / Tag): 1.24
8 | CC(C)c1cc(Cn2ccnc2)cc(C(C)C)c1OCc1ccc(C(O)C(C)(C)C)cc1 (stereo not drawn) [Beispiel 2.4] |  | 1.51 | 
9 | Cc1cc(Cn2ccnc2)cc(C)c1OCc1ccc(C(O)C(C)(C)C)cc1 (stereo not drawn) [Beispiel 2.1] | 2.85 |  | Cholesterolveränderung, bezogen auf die Kontrollgruppe in den Serum-Lipoprotein-Fraktionen HDL/LDL (1 mg/kg / Tag): 2.47
10 | C=CCc1cc(Cn2ccnc2)cc(C)c1OCc1ccc(C(=O)C(C)(C)C)cc1 [Beispiel 1.2] |  | 1.82 | 
11 | Cc1cc(Cn2ccnc2)cc(C)c1OCc1ccc(C(=O)C(C)(C)CCl)cc1 [Beispiel 1.16] | 2.05 |  | Cholesterolveränderung, bezogen auf die Kontrollgruppe in den Serum-Lipoprotein-Fraktionen HDL/LDL (3 mg/kg / Tag): 1.32
12 | Cc1cc(Cn2ccnc2)cc(Cl)c1OCc1ccc(C(=O)C(C)(C)C)cc1 [Beispiel 1, 4-[2-Chlor-4-(-imidazol-1-ylmethyl)-6-methylphenoxymethyl]-phenyl-tert.-butyl-keton] | 1.97 |  | Cholesterolveränderung, bezogen auf die Kontrollgruppe in den Serum-Lipoprotein-Fraktionen HDL/LDL (1 mg/kg / Tag): 1.81; Cholesterolveränderung, bezogen auf die Kontrollgruppe in den Serum-Lipoprotein-Fraktionen HDL/LDL (3 mg/kg / Tag): 1.77
13 | Cc1cc(Cn2cccn2)cc(C)c1OCc1ccc(C(=O)C(C)(C)C)cc1 [Beispiel 1.21] |  | 1.59 | 
14 | COc1cc(Cn2ccnc2)cc(OC)c1OCc1ccc(C(=O)C(C)(C)C)cc1 [Beispiel 1.8] |  |  | Cholesterolveränderung, bezogen auf die Kontrollgruppe in den Serum-Lipoprotein-Fraktionen HDL/LDL (20 mg/kg / Tag): 1.69
15 | Cc1cc(Cn2ccnc2)cc(C)c1OCc1ccc(C(=O)C(C)(C)C)cc1 [Beispiel 3, 4-[2,6-Dimethyl-4-(imidazol-1-ylmethyl)-phenoxymethyl]-phenyl-tert.-butyl-keton] | 1.86 |  | Cholesterolveränderung, bezogen auf die Kontrollgruppe in den Serum-Lipoprotein-Fraktionen HDL/LDL (1 mg/kg / Tag): 1.58; Cholesterolveränderung, bezogen auf die Kontrollgruppe in den Serum-Lipoprotein-Fraktionen HDL/LDL (3 mg/kg / Tag): 1.60
16 | Cc1cc(Cn2ccnc2)cc(C)c1OCc1ccc(C2(C(C)(C)C)OCCO2)cc1 [Beispiel 1.52] |  | 1.34 | 
17 | Cc1cc(Cn2ccnc2)cc(C)c1OCc1ccc(C(=O)c2ccc(Cl)cc2)cc1 [Beispiel 1.46] | 1.61 |  | 
